Test results taken from article PMC5380659, “Unique charge-dependent constraint on collagen recognition by integrin α10β1” (Matrix Biology, 2017).
Results are given in words; binding and its absence hold for the method and conditions named. Some entries that bind do so weakly or less than the wild type.

Amino acid sequences for entries named in this document (tags omitted). A change or cut given only in a name is not applied to a line headed by its entry.
UniProt P56199: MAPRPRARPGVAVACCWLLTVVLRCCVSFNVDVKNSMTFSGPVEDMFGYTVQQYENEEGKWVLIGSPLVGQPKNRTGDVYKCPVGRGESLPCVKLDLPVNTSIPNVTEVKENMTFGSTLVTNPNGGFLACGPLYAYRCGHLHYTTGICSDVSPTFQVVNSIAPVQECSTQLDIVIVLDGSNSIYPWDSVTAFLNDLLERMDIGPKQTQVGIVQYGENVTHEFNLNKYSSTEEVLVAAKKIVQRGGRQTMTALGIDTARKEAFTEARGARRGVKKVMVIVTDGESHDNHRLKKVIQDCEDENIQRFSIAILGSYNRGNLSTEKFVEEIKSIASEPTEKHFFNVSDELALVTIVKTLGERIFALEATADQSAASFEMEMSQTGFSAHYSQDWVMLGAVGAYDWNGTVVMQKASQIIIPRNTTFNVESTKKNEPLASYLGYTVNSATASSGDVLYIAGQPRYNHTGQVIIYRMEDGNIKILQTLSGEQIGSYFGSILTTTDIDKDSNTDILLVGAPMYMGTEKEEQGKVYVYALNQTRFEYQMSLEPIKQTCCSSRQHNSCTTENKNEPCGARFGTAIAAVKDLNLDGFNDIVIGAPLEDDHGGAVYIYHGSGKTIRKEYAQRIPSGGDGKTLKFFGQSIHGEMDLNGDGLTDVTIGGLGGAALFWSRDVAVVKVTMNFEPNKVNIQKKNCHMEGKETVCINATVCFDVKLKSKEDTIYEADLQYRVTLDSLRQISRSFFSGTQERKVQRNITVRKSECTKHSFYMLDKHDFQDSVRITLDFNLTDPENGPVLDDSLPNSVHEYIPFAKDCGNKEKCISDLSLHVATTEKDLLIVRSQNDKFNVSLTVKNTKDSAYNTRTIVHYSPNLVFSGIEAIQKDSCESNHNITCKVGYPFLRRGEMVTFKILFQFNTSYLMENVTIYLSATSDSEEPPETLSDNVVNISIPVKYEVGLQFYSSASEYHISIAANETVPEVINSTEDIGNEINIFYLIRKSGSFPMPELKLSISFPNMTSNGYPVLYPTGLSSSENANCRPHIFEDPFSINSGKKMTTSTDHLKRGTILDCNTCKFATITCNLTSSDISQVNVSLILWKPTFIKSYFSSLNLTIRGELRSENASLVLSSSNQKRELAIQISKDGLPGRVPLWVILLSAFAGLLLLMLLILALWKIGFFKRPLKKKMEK
UniProt P17301: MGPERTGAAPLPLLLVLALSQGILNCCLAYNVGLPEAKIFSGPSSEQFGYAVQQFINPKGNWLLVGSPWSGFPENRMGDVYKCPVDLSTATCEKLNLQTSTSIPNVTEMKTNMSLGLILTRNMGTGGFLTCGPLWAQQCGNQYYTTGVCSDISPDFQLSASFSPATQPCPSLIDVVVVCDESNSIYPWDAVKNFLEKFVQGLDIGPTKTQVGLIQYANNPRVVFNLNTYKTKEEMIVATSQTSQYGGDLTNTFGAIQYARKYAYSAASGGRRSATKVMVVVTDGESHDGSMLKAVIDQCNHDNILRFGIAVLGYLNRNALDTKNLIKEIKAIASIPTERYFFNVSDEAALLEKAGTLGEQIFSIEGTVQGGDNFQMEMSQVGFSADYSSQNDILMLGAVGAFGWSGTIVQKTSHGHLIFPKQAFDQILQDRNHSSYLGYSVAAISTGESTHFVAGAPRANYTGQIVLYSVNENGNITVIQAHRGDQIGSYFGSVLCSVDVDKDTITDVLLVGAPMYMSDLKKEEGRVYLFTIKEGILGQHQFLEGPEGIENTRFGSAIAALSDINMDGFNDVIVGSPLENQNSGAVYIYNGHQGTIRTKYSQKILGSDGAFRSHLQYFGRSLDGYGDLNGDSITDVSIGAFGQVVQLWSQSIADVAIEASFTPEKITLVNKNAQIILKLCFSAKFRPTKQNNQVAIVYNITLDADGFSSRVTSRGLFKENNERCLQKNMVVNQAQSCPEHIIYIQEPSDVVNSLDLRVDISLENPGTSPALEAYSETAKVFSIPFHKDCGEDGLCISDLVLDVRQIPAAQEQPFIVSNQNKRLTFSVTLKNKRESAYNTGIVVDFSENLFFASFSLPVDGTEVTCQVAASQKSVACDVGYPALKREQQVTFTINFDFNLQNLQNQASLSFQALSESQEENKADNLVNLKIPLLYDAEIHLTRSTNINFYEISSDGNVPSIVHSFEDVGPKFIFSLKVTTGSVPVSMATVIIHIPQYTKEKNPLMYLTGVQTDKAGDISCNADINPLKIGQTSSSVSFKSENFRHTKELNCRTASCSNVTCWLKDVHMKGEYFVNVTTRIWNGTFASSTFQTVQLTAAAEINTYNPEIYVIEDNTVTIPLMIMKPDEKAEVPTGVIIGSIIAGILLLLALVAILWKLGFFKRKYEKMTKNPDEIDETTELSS
UniProt O75578: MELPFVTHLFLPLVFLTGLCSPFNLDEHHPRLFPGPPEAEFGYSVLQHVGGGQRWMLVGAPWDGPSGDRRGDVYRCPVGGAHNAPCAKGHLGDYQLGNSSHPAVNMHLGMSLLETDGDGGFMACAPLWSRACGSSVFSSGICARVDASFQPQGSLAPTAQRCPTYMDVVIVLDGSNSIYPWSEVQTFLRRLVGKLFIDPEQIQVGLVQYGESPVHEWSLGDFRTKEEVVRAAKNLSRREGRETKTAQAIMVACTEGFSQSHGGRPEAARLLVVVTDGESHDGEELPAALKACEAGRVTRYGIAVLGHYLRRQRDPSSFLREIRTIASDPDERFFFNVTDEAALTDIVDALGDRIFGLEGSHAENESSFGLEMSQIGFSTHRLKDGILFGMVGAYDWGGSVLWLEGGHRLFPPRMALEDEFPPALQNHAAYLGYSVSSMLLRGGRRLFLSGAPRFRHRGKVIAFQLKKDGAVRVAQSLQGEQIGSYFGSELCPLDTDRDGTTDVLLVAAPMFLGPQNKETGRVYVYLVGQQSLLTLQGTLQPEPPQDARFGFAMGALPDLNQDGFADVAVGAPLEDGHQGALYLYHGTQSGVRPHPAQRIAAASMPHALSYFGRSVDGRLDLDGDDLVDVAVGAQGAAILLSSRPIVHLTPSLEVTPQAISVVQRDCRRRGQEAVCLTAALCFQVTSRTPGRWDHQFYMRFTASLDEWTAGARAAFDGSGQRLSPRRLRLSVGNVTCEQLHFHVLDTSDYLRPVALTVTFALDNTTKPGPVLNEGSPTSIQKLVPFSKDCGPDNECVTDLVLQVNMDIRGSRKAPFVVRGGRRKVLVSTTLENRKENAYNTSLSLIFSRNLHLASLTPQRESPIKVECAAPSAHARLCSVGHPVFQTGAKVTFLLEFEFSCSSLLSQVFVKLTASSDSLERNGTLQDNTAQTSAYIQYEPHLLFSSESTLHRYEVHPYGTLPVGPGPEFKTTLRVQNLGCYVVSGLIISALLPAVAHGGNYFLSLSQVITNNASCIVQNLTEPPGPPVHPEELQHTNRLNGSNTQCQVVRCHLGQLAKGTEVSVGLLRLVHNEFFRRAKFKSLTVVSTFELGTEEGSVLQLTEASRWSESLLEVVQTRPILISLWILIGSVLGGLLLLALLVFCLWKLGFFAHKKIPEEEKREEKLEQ
UniProt Q9UKX5: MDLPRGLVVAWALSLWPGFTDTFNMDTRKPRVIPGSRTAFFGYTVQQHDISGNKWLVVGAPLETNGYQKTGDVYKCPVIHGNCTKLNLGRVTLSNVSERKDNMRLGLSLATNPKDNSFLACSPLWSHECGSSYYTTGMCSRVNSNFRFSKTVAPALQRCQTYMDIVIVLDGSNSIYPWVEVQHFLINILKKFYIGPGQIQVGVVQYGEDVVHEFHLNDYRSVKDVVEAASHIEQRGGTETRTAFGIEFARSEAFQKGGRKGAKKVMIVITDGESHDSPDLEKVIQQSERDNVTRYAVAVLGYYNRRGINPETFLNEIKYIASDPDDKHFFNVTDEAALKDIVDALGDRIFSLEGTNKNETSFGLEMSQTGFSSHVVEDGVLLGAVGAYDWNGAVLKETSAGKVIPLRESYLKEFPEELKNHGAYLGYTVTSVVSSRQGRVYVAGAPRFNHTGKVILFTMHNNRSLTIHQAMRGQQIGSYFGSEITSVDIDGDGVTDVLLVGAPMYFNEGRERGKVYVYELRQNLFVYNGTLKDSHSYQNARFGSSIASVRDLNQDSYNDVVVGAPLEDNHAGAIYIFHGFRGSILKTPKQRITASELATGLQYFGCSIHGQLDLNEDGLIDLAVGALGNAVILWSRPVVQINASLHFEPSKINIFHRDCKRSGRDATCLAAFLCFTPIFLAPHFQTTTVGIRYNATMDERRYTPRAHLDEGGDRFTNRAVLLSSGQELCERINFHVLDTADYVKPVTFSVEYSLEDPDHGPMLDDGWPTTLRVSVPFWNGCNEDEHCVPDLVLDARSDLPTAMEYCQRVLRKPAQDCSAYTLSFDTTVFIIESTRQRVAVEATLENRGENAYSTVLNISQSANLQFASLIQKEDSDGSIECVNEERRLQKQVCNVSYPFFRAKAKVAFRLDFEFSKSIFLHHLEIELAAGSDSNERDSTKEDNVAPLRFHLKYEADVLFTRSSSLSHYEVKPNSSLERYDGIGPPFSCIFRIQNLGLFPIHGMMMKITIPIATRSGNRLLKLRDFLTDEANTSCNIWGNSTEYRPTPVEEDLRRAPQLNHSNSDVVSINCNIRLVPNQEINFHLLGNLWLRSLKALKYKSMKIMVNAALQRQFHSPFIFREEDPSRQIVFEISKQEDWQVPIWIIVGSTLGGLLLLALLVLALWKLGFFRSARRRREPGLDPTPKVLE

Columns and labels:
Assay in all cases: cell adhesion to coated peptides (LDH read-out); peptide-coated 96-well plates; 5 × 10^4 integrin-transfected C2C12 cells per well in Tris-buffered saline with 5.5 mM glucose and 2 mM MgCl2, 20 °C, 60 min; adherent cells lysed and read with a lactate dehydrogenase kit; only the target purified
[1] = molecular target: short triple-helical peptide (THP) containing GRSGET (human)
[2] = molecular target: short triple-helical peptide (THP) containing GLKGEN (human)
[3] = molecular target: short triple-helical peptide (THP) containing GLSGER (human)

| binding [1] | binding [2] | binding [3] | Substance |
| --- | --- | --- | --- |
| binds | – | – | integrin α1β1 on C2C12-α1β1 cells (from UniProt P56199 29-1179; P09055 21-798) (receptor) |
| binds | – | – | integrin α2β1 on C2C12-α2β1 cells (from UniProt P17301 30-1181; P09055 21-798) (receptor) |
| no binding | binds | binds | integrin α10β1 on C2C12-α10β1 cells (from UniProt O75578 23-1167; P09055 21-798) (receptor) |
| binds | – | – | integrin α11β1 on C2C12-α11β1 cells (from UniProt Q9UKX5 23-1188; P09055 21-798) (receptor) |
